Measured values as given in the supplement of paper PMC3334620.
In all, about 33,000 sequences were measured (“E-score (-0.5 to 0.5)”: median about -0.011, highest 2% from about 0.28 on). The list shows a part of the results.

Biological target: T1, Gcr1 (UniProt P07261)
T1 sequence: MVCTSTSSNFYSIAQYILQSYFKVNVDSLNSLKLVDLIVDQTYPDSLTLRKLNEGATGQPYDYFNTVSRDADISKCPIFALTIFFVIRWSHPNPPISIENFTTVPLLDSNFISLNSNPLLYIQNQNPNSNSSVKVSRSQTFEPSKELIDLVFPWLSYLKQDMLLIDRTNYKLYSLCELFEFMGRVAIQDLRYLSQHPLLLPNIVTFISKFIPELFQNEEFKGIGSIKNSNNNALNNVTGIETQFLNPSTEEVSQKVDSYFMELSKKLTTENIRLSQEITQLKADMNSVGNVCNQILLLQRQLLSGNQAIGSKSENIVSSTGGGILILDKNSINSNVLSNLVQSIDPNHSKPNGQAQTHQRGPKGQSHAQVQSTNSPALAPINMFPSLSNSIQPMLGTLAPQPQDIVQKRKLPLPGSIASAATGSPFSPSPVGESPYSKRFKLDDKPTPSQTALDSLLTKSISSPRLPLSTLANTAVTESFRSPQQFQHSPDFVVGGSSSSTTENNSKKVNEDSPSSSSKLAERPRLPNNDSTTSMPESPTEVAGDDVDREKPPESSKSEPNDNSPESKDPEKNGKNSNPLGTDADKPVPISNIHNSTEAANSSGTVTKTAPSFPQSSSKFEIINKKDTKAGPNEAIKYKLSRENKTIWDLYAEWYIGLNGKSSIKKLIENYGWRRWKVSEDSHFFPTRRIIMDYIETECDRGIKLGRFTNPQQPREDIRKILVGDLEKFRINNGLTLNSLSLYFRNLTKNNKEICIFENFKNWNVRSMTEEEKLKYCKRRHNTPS
Experiment: PBM E-score (8-mer binding enrichment) (E-score (-0.5 to 0.5)); higher = stronger / more preferred TF binding; most listed sequences are background and not binding sites
Conditions: protein concentration: 100 nM; construct: GST-full length
How it was run: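 Each ungapped eight-base word and its reverse complement, pooled, received an E-score from the Universal PBM Analysis Suite. Underlying scans, normalised with masliner, recorded fluorescent anti-GST bound to GST-tagged yeast transcription factors. These were applied at about 100-200 nM to universal all-10-mer Agilent arrays double-stranded by primer extension.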

| Sequence | PBM E-score |
| --- | --- |
| ACTTCCCT | -0.036 |
| CAGGCGTA | -0.00724 |
| CCCAGAGC | -0.139 |
| GGCATACA | -0.154 |
| ACAGTCAC | -0.135 |
| TAAGTTGA | 0.0103 |
| ACTTCGCG | -0.0107 |
| ACTACAAG | 0.0419 |
| AGCCTATG | -0.14 |
| GTTCTCAA | -0.129 |
| CGACGCAC | -0.0398 |
| GATGGACC | -0.0233 |
| ACTTGGCA | 0.103 |
| CGTAGCAG | -0.0996 |
| GGACTTCA | -0.0496 |
| CTTCTAAC | 0.0237 |
| AACTATAA | 0.052 |
| TAAGCCTA | -0.0689 |
| CTCTAACC | -0.00747 |
| CAGCTCCG | 0.04 |
| AATACTCG | 0.0669 |
| CTACAAGA | 0.178 |
| CGTCTGTC | 0.0841 |
| GACATGAA | 0.0102 |
| CGCTTTCA | -0.00233 |

| Sequence | PBM E-score |
| --- | --- |
| CGCGCACG | -0.0391 |
| CGTTTTCC | 0.0138 |
| ATGACCCG | -0.321 |
| GCATACGA | 0.0222 |
| CCGCAGAA | 0.0395 |
| CATGTAGC | 0.00775 |
| AAGCGTGC | -0.18 |
| TCTTTGCA | 0.124 |
| GGAACAGA | -0.132 |
| CTGCCTAA | 0.161 |
| ATTTATGG | 0.149 |
| CATGACCC | -0.309 |
| GCCACCAC | 0.131 |
| CTCAACCC | -0.0891 |
| CACTTGCC | -0.076 |
| CTCAGGTC | -0.088 |
| CAACCTCC | -0.135 |
| ATGCCTAG | 0.0191 |
| TGATTACA | 0.073 |
| AGCTACTG | 0.109 |
| TAACGCCA | -0.132 |
| CGATGTGC | -0.242 |
| CAGTGTGA | 0.0434 |
| GTCAACGA | -0.0653 |
| CGACCTGC | -0.225 |

| Sequence | PBM E-score |
| --- | --- |
| ACCCCTAT | 0.097 |
| AAGATGAA | 0.0389 |
| ATCAAGAA | 0.231 |
| AGTATCCA | 0.042 |
| GACAGGAA | 0.316 |
| CACCCTGA | 0.0636 |
| ACCATTCT | -0.0236 |
| GTGCGTTA | -0.116 |
| TGATACAA | -0.0109 |
| ACTCCCAC | 0.0336 |
| GATGGCCA | -0.214 |
| CCTCAGCG | -0.0585 |
| GATTGTTA | 0.0199 |
| CCAGTAGC | 0.164 |
| ATGAACTG | 0.0704 |
| AGTGGAAG | 0.442 |
| CCCGACTC | -0.179 |
| AACGAGCT | -0.123 |
| AAACCTTC | 0.0778 |
| CTGTATGA | -0.0714 |
| ACGTAGAG | 0.0842 |
| CGATCCGA | -0.223 |
| CTGCGCAA | 0.0872 |
| CAAAACAC | 0.027 |
| TAACTACA | -0.143 |

| Sequence | PBM E-score |
| --- | --- |
| CACCCTCC | 0.0196 |
| ATACAATC | -0.185 |
| AAACTCCA | -0.0481 |
| AGTACAGC | -0.282 |
| AAAACCGC | -0.0251 |
| AGGTCGTA | -0.0148 |
| ACTCCTCA | 0.0709 |
| AACAAGTT | 0.155 |
| AGTGCAGA | 0.0469 |
| ATACATCG | -0.00309 |
| AACGCATG | -0.104 |
| CGCATCCG | 0.221 |
| AGATTTGC | 0.102 |
| ATCCATTA | 0.269 |
| CATGGCGC | -0.0109 |
| CACGACGC | 0.163 |
| ACGGGGCG | 0.21 |
| CGCCCGCC | -0.0232 |
| ACGACTAG | 0.017 |
| GCTCTTGA | -0.0408 |
| CGCCTATC | -0.14 |
| ATGTCCTC | -0.212 |
| CATTGGTA | 0.0202 |
| GGGTCGCA | -0.0317 |
| ACCATGCG | 0.0398 |

| Sequence | PBM E-score |
| --- | --- |
| ATCGCCAA | -0.0723 |
| GCTATGCC | -0.183 |
| CCCTGCTA | -0.188 |
| TCTATCAA | -0.11 |
| AGAGAATG | -0.0661 |
| AATAAAGT | 0.157 |
| CTCACACC | -0.275 |
| CGTGTGGC | -0.151 |
| AGTCATGG | -0.0153 |
| ACTACCAG | 0.0768 |
| CGTAAGGC | -0.193 |
| CGTTCGCC | -0.12 |
| CAGGGGAA | 0.0542 |
| CTAGTTTC | 0.142 |
| GAACCGCC | 0.0437 |
| TCCCCGGA | 0.081 |
| CCATAAAG | 0.134 |
| AGACGCAT | 0.231 |
| ATCTTGCC | -0.0924 |
| GGATACAC | 0.148 |
| CACAATCA | -0.141 |
| ATCCGCAC | 0.101 |
| TCCTCGAA | -0.0343 |
| GAAAATTC | -0.0468 |
| ACCTCGGC | 0.00104 |

| Sequence | PBM E-score |
| --- | --- |
| ACAGTGCC | -0.247 |
| GACTTAGC | -0.179 |
| ACTTGTAG | 0.19 |
| AGGCGTAC | -0.0119 |
| ACGGAGCC | 0.198 |
| CCTAATGC | -0.122 |
| AACGGACA | 0.0246 |
| TAATACTA | 0.0608 |
| ACTGACTG | -0.168 |
| ACCCGAAT | 0.194 |
| CGCACTCC | 0.0372 |
| AATTTTTC | 0.109 |
| CTGATAAC | 0.074 |
| ATCTAAAA | 0.0809 |
| ATCCTCAC | 0.1 |
| ATTGAAGA | 0.0516 |
| ACAGTCCT | -0.141 |
| AAACCTCG | -0.0915 |
| AGCGCGCG | -0.0226 |
| AATTCACT | 0.0221 |
| ACAACCGA | -0.269 |
| CGACCGTC | -0.41 |
| CAGACATG | 0.00439 |
| AGCTACCC | 0.00012 |
| ATTATGCC | -0.127 |

| Sequence | PBM E-score |
| --- | --- |
| TGGAATAA | -0.0597 |
| ATAGGAGG | 0.0574 |
| GCTCGCTA | -0.34 |
| AGTACCAT | 0.00754 |
| AGTGAGAA | 0.0641 |
| CGTGTAAC | 0.0763 |
| ATCCCTCC | -0.11 |
| GACGAAGA | -0.156 |
| ATAATTGA | 0.112 |
| TAGCTTGA | -0.0368 |
| CCCTCGCG | -0.124 |
| TAGTGCGA | -0.00966 |
| CTGAGGGC | -0.111 |
| ATAAATAT | 0.131 |
| TTACCCAA | -0.0605 |
| ACCACACT | -0.00168 |
| CGGTATCC | 0.282 |
| GCGGCCAC | 0.161 |
| CTACACCC | -0.0515 |
| CGGTCGCC | 0.0526 |
| CGCACGGA | -0.0217 |
| GAGATTAC | -0.19 |
